In the supplement of paper PMC7238544:
Structures can show the parent of a compound that is named as a salt. ± gives the standard deviation of the averaged measurements. Some of the results follow.

Columns and labels:
Conditions in all cases: priming compound concentration 100 µM
hAMSC donor 1 [1] = test: Hoechst total cell count ratio vs vehicle control; higher = more cells (less toxicity)
hAMSC donor 2 [2] = test: as above
hAMSC donor 1 [3] = test: transgenic luciferase activity (RLU/mg protein) fold change vs vehicle control (ratio); higher = more transgene expression
hAMSC donor 2 [4] = test: as above
hAMSC donor 1 [5] = test: transfection efficiency (EGFP+ cells / Hoechst count) fold change vs vehicle control (ratio); hAMSC are human adipose-derived mesenchymal stem cells given an EGFP-luciferase plasmid by lipofection; higher = enhanced transfection
hAMSC donor 2 [6] = test: as above
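For Hoechst total cell count ratio vs vehicle control in this document: compound added 30 min before Lipofectamine 3000 lipoplex delivery, triplicate-well means expressed against DMSO vehicle control wells of the same 96-well plate.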
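For transfection efficiency (EGFP+ cells / Hoechst count) fold change vs vehicle control in this document: compounds added 30 min before Lipofectamine 3000 lipoplex transfection, triplicate means relative to DMSO vehicle wells on the same plate, luciferase RLU normalized to BCA total protein.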
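For transgenic luciferase activity (RLU/mg protein) fold change vs vehicle control in this document: compounds in DMSO added 30 min before Lipofectamine 3000 transfection of pEGFP-Luc in 96-well plates, values are means of triplicate wells over DMSO vehicle wells on the same plate.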

SMILES | Hoechst total cell count ratio (hAMSC donor 1 [1]) | Hoechst total cell count ratio (hAMSC donor 2 [2]) | transgenic luciferase activity (hAMSC donor 1 [3]) | transgenic luciferase activity (hAMSC donor 2 [4]) | transfection efficiency (hAMSC donor 1 [5]) | transfection efficiency (hAMSC donor 2 [6])
FC(F)(F)c1cccc(N2CCNCC2)c1 [TFMPP hydrochloride] | 0.987 ± 0.084 | 1.19 ± 0.12 | 0.197 ± 0.05 | 1.02 ± 0.09 | 0.896 ± 0.14 | 1.23 ± 0.091
CCC1(c2ccc(N)cc2)CCC(=O)NC1=O (centres undefined) [Aminoglutethimide] | 1.09 ± 0.13 | 1.45 ± 0.23 | 0.378 ± 0.14 | 0.737 ± 0.17 | 0.829 ± 0.11 | 0.802 ± 0.16
COc1cc(N)c(Cl)cc1C(=O)NC1CN2CCC1CC2 (centres undefined) [Zacopride hydrochloride hydrate] | 1.19 ± 0.073 | 1.56 ± 0.1 | 0.681 ± 0.28 | 0.889 ± 0.23 | 0.657 ± 0.23 | 0.788 ± 0.1
CN1CCN(C(=O)O[C@H]2c3nccnc3C(=O)N2c2ccc(Cl)cn2)CC1 [Eszopiclone] | 1.34 ± 0.086 | 1.47 ± 0.2 | 0.668 ± 0.2 | 0.885 ± 0.059 | 0.527 ± 0.23 | 0.871 ± 0.039
Cc1ncc2n1-c1ccc(Cl)cc1C(c1ccccc1F)=NC2 [Midazolam hydrochloride] | 1.4 ± 0.12 | 1.18 ± 0.077 | 1.04 ± 0.047 | 1.61 ± 0.39 | 1.05 ± 0.17 | 1.2 ± 0.4
Oc1ccc2c3c1O[C@H]1c4[nH]c5ccccc5c4C[C@@]4(O)[C@@H](C2)N(CC2CC2)CC[C@]314 [Naltrindole hydrochloride hydrate] | 0.614 ± 0.052 | 0.359 ± 0.015 | 0.199 ± 0.024 | 0.413 ± 0.1 | 0.707 ± 0.31 | 1.06 ± 0.33
CC(NC(C)(C)C)C(=O)c1cccc(Cl)c1 (centres undefined) [Bupropion hydrochloride] | 1.3 ± 0.27 | 1.18 ± 0.17 | 0.85 ± 0.24 | 0.596 ± 0.058 | 0.695 ± 0.25 | 0.701 ± 0.16
CN1C(=O)COc2c(C(=O)NC3CN4CCC3CC4)cc(Cl)cc21 (centres undefined) [Azasetron hydrochloride] | 1.5 ± 0.28 | 1.27 ± 0.12 | 1.58 ± 1.3 | 1.11 ± 0.47 | 1.28 ± 0.19 | 0.959 ± 0.29
COc1ccc2c(c1)[C@]13CCCC[C@@H]1[C@H](C2)N(C)CC3 [Dextromethorphan hydrobromide, monohydrate] | 1.31 ± 0.47 | 1.16 ± 0.16 | 0.227 ± 0.007 | 0.374 ± 0.014 | 1.17 ± 0.12 | 0.6 ± 0.1
CCOC(=O)C1(c2ccccc2)CCN(CCC(C#N)(c2ccccc2)c2ccccc2)CC1 [Diphenoxylate hydrochloride] | 1.03 ± 0.19 | 0.779 ± 0.14 | 0.743 ± 0.16 | 0.871 ± 0.27 | 1.26 ± 0.089 | 0.856 ± 0.14
Cc1ccc(-c2nc3ccc(C)cn3c2CC(=O)N(C)C)cc1 [Zolpidem tartrate] | 1.16 ± 0.17 | 0.957 ± 0.19 | 0.979 ± 0.44 | 1.54 ± 0.44 | 1.53 ± 0.1 | 1.78 ± 0.47
C=C(C)CN1CC[C@@]23c4c5ccc(O)c4O[C@H]2c2[nH]c4ccccc4c2C[C@]3(O)C1C5 [SDM25N hydrochloride] | 0.21 ± 0.027 | 0.0577 ± 0.032 | 0.00403 ± 0.0007 | 0.000637 ± 0.00069 | 0.406 ± 0.28 | 0.461 ± 0.41
O=C1CN=C(c2ccccc2)c2cc([N+](=O)[O-])ccc2N1 [Nitrazepam] | 1.38 ± 0.23 | 1.3 ± 0.22 | 0.471 ± 0.48 | 1.01 ± 0.61 | 1.3 ± 0.04 | 1.14 ± 0.16
C#CCN(C)[C@H](C)Cc1ccccc1 [Selegiline hydrochloride] | 1.11 ± 0.04 | 1.34 ± 0.13 | 0.193 ± 0.094 | 0.609 ± 0.14 | 1.01 ± 0.15 | 0.82 ± 0.13
NC(=O)OCCCc1ccccc1 [Phenprobamate] | 1.43 ± 0.092 | 1.04 ± 0.081 | 0.66 ± 0.77 | 0.697 ± 0.17 | 1.24 ± 0.22 | 0.842 ± 0.12
COc1ccc2[nH]cc(C3=CCNCC3)c2c1 | 1.75 ± 0.1 | 2.78 ± 0.3 | 1.15 ± 0.38 | 0.629 ± 0.1 |  | 
CCOC(=O)c1cncn1[C@H](C)c1ccccc1 [Etomidate] | 1.6 ± 0.1 | 2.07 ± 0.21 | 0.874 ± 0.54 | 0.234 ± 0.033 | 0.756 ± 0.09 | 0.775 ± 0.16
CC(C)CC(N(C)C)C1(c2ccc(Cl)cc2)CCC1 (centres undefined) [Sibutramine] | 1.23 ± 0.086 | 1.83 ± 0.17 | 0.852 ± 0.32 | 0.602 ± 0.13 | 0.603 ± 0.13 | 0.658 ± 0.097
CCCCC/C=C\C/C=C\C/C=C\C/C=C\CCCC(=O)Nc1ccc(O)cc1 | 0.226 ± 0.022 | 0.0363 ± 0.025 | 0.000408 ± 0.0002 | 0.000311 ± 0.00012 | 0.0854 ± 0.0081 | 0.0397 ± 0.069
CNC1=Nc2ccc(Cl)cc2C(c2ccccc2)=[N+]([O-])C1 [Chlordiazepoxide] | 1.02 ± 0.016 | 1.08 ± 0.095 | 0.87 ± 0.2 | 0.91 ± 0.013 | 1.28 ± 0.23 | 0.778 ± 0.063
CC[C@]1(O)CC[C@H]2[C@@H]3CCC4=CCCC[C@@H]4[C@H]3CC[C@@]21C [Ethylestrenol] | 1.39 ± 0.2 | 1.08 ± 0.37 | 0.424 ± 0.24 | 0.892 ± 0.085 | 0.884 ± 0.44 | 1.02 ± 0.19

SMILES | Hoechst total cell count ratio (hAMSC donor 1 [1]) | Hoechst total cell count ratio (hAMSC donor 2 [2]) | transgenic luciferase activity (hAMSC donor 1 [3]) | transgenic luciferase activity (hAMSC donor 2 [4]) | transfection efficiency (hAMSC donor 1 [5]) | transfection efficiency (hAMSC donor 2 [6])
C[C@]12CCC(=O)C=C1CC[C@@H]1[C@@H]2CC[C@@]2(C)[C@H]1CC[C@]2(C)O [Methyltestosterone] | 1.19 ± 0.093 | 0.933 ± 0.059 | 1.49 ± 1.6 | 0.766 ± 0.22 | 1.09 ± 0.16 | 1.26 ± 0.24
COC(=O)N1CCN(C(=O)Cc2ccc(Cl)c(Cl)c2)C(CN2CCCC2)C1 (centres undefined) | 1.47 ± 0.31 | 1.09 ± 0.12 | 0.556 ± 0.079 | 0.983 ± 0.035 | 0.999 ± 0.14 | 0.914 ± 0.09
COc1cc2c(cc1OC)[C@@]13CCN4CC5=CCO[C@H]6CC(=O)N2[C@H]1[C@H]6[C@H]5C[C@H]43 [Brucine] | 1.31 ± 0.24 | 1.22 ± 0.2 | 1.71 ± 1.4 | 0.694 ± 0.55 | 0.944 ± 0.25 | 0.805 ± 0.14
CN[C@@H]1C[C@@H](c2ccc(Cl)c(Cl)c2)c2ccccc21 [Indatraline hydrochloride] | 0.0543 ± 0.018 | 0.0253 ± 0.0021 | 0.00123 ± 0.00052 | 0.000712 ± 0.00028 | 0.0852 ± 0.15 | 0.0976 ± 0.17
CC[C@@H](C(N)=O)N1CCCC1=O [Levetiracetam] | 1.66 ± 0.13 | 1.61 ± 0.15 | 0.914 ± 0.61 | 1.34 ± 0.075 | 0.63 ± 0.079 | 0.922 ± 0.23
COc1ccc2[nH]cc(CCN)c2c1 [5-Methoxytryptamine] | 1.31 ± 0.12 | 1.53 ± 0.19 | 0.572 ± 0.23 | 0.54 ± 0.052 | 0.581 ± 0.12 | 0.549 ± 0.12
C[C@]12Cc3c[nH]nc3C[C@@H]1CC[C@@H]1[C@@H]2CC[C@@]2(C)[C@H]1CC[C@]2(C)O [Stanozolol] | 1.14 ± 0.092 | 0.862 ± 0.12 | 0.776 ± 0.27 | 1.49 ± 0.071 | 2.19 ± 0.73 | 2.05 ± 0.34
C[N+]1(CCC(C(N)=O)(c2ccccc2)c2ccccc2)CCCCC1 [Fenpiverinium bromide] | 1.37 ± 0.092 | 1.07 ± 0.25 | 1.49 ± 0.95 | 1 ± 0.25 | 0.932 ± 0.15 | 1.12 ± 0.22
CN1C(=O)CN=C(c2ccccc2)c2cc([N+](=O)[O-])ccc21 [Nimetazepam] | 1.26 ± 0.12 | 0.76 ± 0.11 | 0.919 ± 0.18 | 0.74 ± 0.11 | 0.701 ± 0.031 | 1.21 ± 0.14
CC(=O)O[C@H]1C[C@@H]2CC[C@@H]3[C@H](CC[C@@]4(C)[C@H]3C[C@H]([N+]3(C)CCCCC3)[C@@H]4OC(C)=O)[C@@]2(C)C[C@@H]1[N+]1(C)CCCCC1 [Pancuronium dibromide] | 1.25 ± 0.098 | 1.09 ± 0.2 | 0.811 ± 0.12 | 0.876 ± 0.26 | 1.04 ± 0.31 | 1.16 ± 0.13
O=P1(N(CCCl)CCCl)NCCCO1 (centres undefined) [Cyclophosphamide hydrate] | 1.35 ± 0.047 | 1.6 ± 0.019 | 0.295 ± 0.099 | 0.528 ± 0.093 | 0.648 ± 0.11 | 0.872 ± 0.016
C[C@]12CCC(=O)C[C@@H]1CC[C@@H]1[C@@H]2CC[C@@]2(C)[C@H]1CC[C@]2(C)O [Mestanolone] | 1.46 ± 0.18 | 0.885 ± 0.12 | 0.343 ± 0.3 | 1.31 ± 0.55 | 1.03 ± 0.099 | 1.25 ± 0.36
C[C@]12CC[C@H](O)CC1=CC[C@@H]1[C@@H]2CC[C@]2(C)C(=O)CC[C@@H]12 [Dehydroepiandrosterone] | 1.42 ± 0.3 | 0.95 ± 0.11 | 0.243 ± 0.24 | 0.109 ± 0.043 | 1.22 ± 0.12 | 0.983 ± 0.26
C[C@]12C/C(=C/O)C(=O)C[C@@H]1CC[C@@H]1[C@@H]2CC[C@@]2(C)[C@H]1CC[C@]2(C)O [Oxymetholone] | 1.76 ± 0.063 | 0.386 ± 0.058 | 0.287 ± 0.14 | 0.717 ± 0.35 | 0.444 ± 0.038 | 1.12 ± 0.25
O=C1Nc2ccc(Cl)cc2C(c2ccccc2Cl)=NC1O (centres undefined) [Lorazepam] | 1.18 ± 0.073 | 2 ± 0.13 | 1.47 ± 0.38 | 1.79 ± 0.18 | 1.27 ± 0.28 | 0.715 ± 0.01
NC(=O)C[S+]([O-])C(c1ccccc1)c1ccccc1 (centres undefined) [Modafinil] | 1.55 ± 0.17 | 1.07 ± 0.072 | 2.93 ± 0.63 | 2.06 ± 0.13 | 1.39 ± 0.23 | 1.55 ± 0.24
C=CCN1CC[C@]23c4c5ccc(O)c4O[C@H]2C(=O)CC[C@@]3(O)[C@H]1C5 [Naloxone hydrochloride] | 1.37 ± 0.17 | 1.33 ± 0.42 | 0.381 ± 0.076 | 0.849 ± 0.19 | 0.726 ± 0.064 | 0.95 ± 0.076
C[N+]1(C)CCN(c2ccccc2)CC1 [1,1-Dimethyl-4-phenylpiperazinium iodide] | 0.962 ± 0.15 | 1.16 ± 0.039 | 0.263 ± 0.032 | 0.893 ± 0.23 | 1.02 ± 0.19 | 1.09 ± 0.22
CN(C)C(=O)Oc1ccc[n+](C)c1 [Pyridostigmine bromide] | 1.21 ± 0.13 | 1.4 ± 0.12 | 2.17 ± 0.47 | 1.3 ± 0.097 | 1.18 ± 0.24 | 1.51 ± 0.077
CCN(CC)CCOC(=O)C(O)(c1ccccc1)c1ccccc1 [Benactyzine hydrochloride] | 1.03 ± 0.14 | 1.22 ± 0.069 | 1.14 ± 0.93 | 0.766 ± 0.23 | 1.22 ± 0.39 | 0.999 ± 0.21
